Experimental data reported in the supplement of paper PMC12217912.
Some of the results follow. The full chains were built here from the parent and the listed change. Values near 0.05 are background.

B1: TEV protease; numbered along this chain (parent)
chain: MGESLFKGPRDYNPISSSICHLTNESDGHTTSLYGIGFGPFIITNKHLFRRNNGTLVVQSLHGVFKVKDTTTLQQHLVDGRDMIIIRMPKDFPPFPQKLKFREPQREERICLVTTNFQTKSMSSMVSDTSCTFPSGDGIFWKHWIQTKDGQCGSPLVSTRDGFIVGIHSASNFTNTNNYFTSVPKNFMELLTNQEAQQWVSGWRLNADSVLWGGHKVFMVKPEEPFQPVKEATQL

Variants of: B1
Assay: raw area under fraction-flipped curve 0-4 h after induction (AUC4h, not background-subtracted), DNA-recorder readout of cleavage of the substrate (dimensionless); higher = more cleavage of the substrate by the protease variant
Conditions: temperature: 34 °C; time window: 0-4 h after rhamnose induction
Protocol: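 In vivo DNA recorder in E. coli TOP10(DE3) ΔrhaA at 34 °C. Each TEVp single-site mutant (parent TEVp 0) is paired with a single-site variant of the 7-mer TEVs (canonical ENLYFQ|S). The substrate sits between flexible linkers in a Bxb1-sfGFP-TEVs-SsrA fusion, so cleavage stabilises Bxb1 and speeds flipping of a recombination array, read by NGS. The value is the raw area under the fraction-flipped curve over 0-4 h after rhamnose induction (AUC4h), with ≥20 reads per time point. It is not background-subtracted; inactive controls average about 0.047.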
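Further: Bxb1 expression induced with 0.2% (w/v) L-rhamnose at OD600 near 0.5, cultures sampled hourly, flipped fraction per protease–substrate barcode pair counted by paired-end Illumina sequencing.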

| Variant | area with substrate ENLYAQS | area with substrate ENLYEQS | area with substrate ENLYGQS | area with substrate ENLYIQS | area with substrate ENLYKQS | area with substrate ENLYMQS | area with substrate ENLYNQS | area with substrate ENLYPQS | area with substrate ENLYQQS | area with substrate ENLYRQS | area with substrate ENLYTQS | area with substrate ENLYWQS | area with substrate ENLYHQS | area with substrate ENLYLQS | area with substrate ENLYVQS | area with substrate ENLYDQS | area with substrate ENLYSQS | area with substrate ENLYYQS | area with substrate ENLYCQS |
| --- | --- | --- | --- | --- | --- | --- | --- | --- | --- | --- | --- | --- | --- | --- | --- | --- | --- | --- | --- |
| R81L | 0.0657 | 0.0756 | 0.0621 | 0.0721 | 0.0432 | 0.0585 | 0.0396 | 0.0329 | 0.0607 | 0.0619 | 0.0677 | 0.0577 | – | – | – | – | – | – | – |
| Q74F | 0.0679 | 0.0682 | 0.0842 | – | 0.0225 | 0.0778 | 0.0374 | 0.0741 | 0.0568 | – | – | – | 0.0699 | 0.074 | 0.0978 | – | – | – | – |
| L190G | 0.0729 | 0.0605 | – | 0.0772 | 0.0808 | 0.0599 | 0.0736 | – | 0.0629 | 0.0743 | 0.0775 | 0.0738 | 0.051 | 0.0508 | 0.107 | 0.0417 | 0.0649 | – | – |
| N45K | 0.0731 | 0.0579 | – | 0.0549 | 0.0273 | 0.0594 | 0.0553 | 0.0444 | 0.0573 | 0.0591 | – | 0.066 | 0.0579 | – | – | – | 0.0545 | 0.0549 | – |
| Q97S | 0.0771 | – | 0.0772 | – | – | – | – | – | – | – | – | – | 0.0726 | 0.0959 | 0.1 | 0.0577 | 0.0769 | – | – |
| F173L | 0.0771 | 0.0969 | 0.0745 | 0.115 | 0.0729 | – | 0.0614 | 0.0721 | 0.0684 | – | – | 0.0794 | 0.0845 | – | – | 0.0638 | – | – | – |
| N175Y | 0.0746 | 0.0547 | 0.0622 | – | – | – | 0.0605 | 0.0835 | 0.0623 | 0.0598 | – | 0.0707 | 0.0572 | – | 0.0967 | 0.0575 | 0.0752 | 0.0673 | – |
| S16W | 0.0764 | 0.0683 | 0.0632 | 0.0873 | 0.108 | 0.0928 | 0.0672 | 0.071 | 0.081 | 0.0605 | 0.0872 | – | 0.0632 | – | – | 0.0564 | 0.0744 | – | – |
| V220A | 0.0792 | 0.075 | 0.0497 | 0.136 | 0.0641 | 0.0897 | 0.0696 | 0.0709 | 0.0765 | 0.0603 | 0.0993 | 0.108 | 0.0751 | 0.0936 | 0.145 | 0.0591 | – | 0.0604 | 0.0827 |
| W203C | 0.0435 | 0.053 | 0.0519 | – | 0.0504 | – | 0.0588 | 0.06 | 0.0472 | 0.0567 | – | – | 0.0679 | 0.052 | – | 0.0713 | – | – | – |
| N116E | 0.0719 | 0.0675 | 0.0866 | – | 0.0683 | – | 0.0734 | 0.0779 | – | 0.0645 | 0.0729 | 0.075 | 0.0716 | 0.0855 | 0.115 | 0.0613 | 0.0745 | – | – |
| F38M | 0.0654 | 0.0652 | – | 0.121 | 0.0541 | 0.076 | 0.0577 | 0.0563 | 0.062 | 0.0338 | – | 0.087 | 0.0524 | – | 0.122 | 0.0577 | 0.0551 | 0.0549 | – |
| F38L | 0.0666 | 0.0616 | 0.0662 | 0.127 | 0.0683 | 0.0717 | 0.0623 | 0.0653 | 0.0591 | 0.0561 | 0.068 | 0.0758 | 0.06 | – | 0.126 | 0.0617 | 0.0674 | 0.0588 | 0.0793 |
| N186E | 0.0677 | 0.0722 | 0.0583 | 0.15 | – | – | 0.0711 | – | 0.0577 | 0.0415 | – | – | 0.0899 | – | 0.112 | – | 0.0752 | – | – |
| N186W | 0.0673 | 0.05 | 0.067 | 0.119 | 0.0115 | 0.0964 | 0.0618 | 0.0718 | – | 0.0523 | 0.0768 | 0.0618 | 0.047 | – | 0.105 | 0.063 | – | – | 0.055 |
| Q105G | 0.0636 | 0.0692 | 0.0557 | 0.113 | 0.0634 | 0.0695 | 0.0743 | 0.0727 | 0.0559 | – | 0.0812 | 0.0669 | 0.0634 | – | – | 0.0539 | 0.0741 | 0.0729 | – |
| I139M | 0.0601 | 0.06 | 0.0577 | 0.108 | 0.0437 | 0.0722 | 0.0675 | 0.0727 | – | 0.0582 | – | 0.0833 | 0.0755 | – | 0.13 | 0.0762 | 0.0799 | 0.066 | 0.0813 |
| P14S | 0.0788 | 0.0635 | 0.066 | 0.157 | 0.0796 | 0.0761 | 0.0824 | 0.0764 | 0.075 | 0.0655 | 0.0722 | 0.0818 | 0.0692 | 0.0809 | 0.102 | 0.072 | 0.0779 | – | 0.0915 |
| L156D | 0.0451 | 0.0565 | – | 0.0489 | – | 0.0608 | 0.0547 | 0.0667 | 0.0478 | 0.058 | 0.061 | 0.0605 | – | – | – | 0.0549 | 0.0551 | 0.0457 | 0.048 |
| S17M | 0.0854 | 0.0696 | 0.0616 | 0.138 | 0.0619 | 0.0876 | 0.0622 | 0.0625 | 0.058 | 0.0624 | 0.0993 | – | 0.0766 | 0.104 | 0.116 | 0.0887 | 0.073 | 0.0848 | – |
| S135Y | 0.061 | 0.0708 | 0.0569 | 0.0648 | 0.0657 | – | – | 0.0647 | – | 0.0615 | 0.0539 | 0.0477 | 0.058 | 0.0596 | – | 0.0622 | 0.0556 | – | 0.0758 |
| C20T | 0.0701 | 0.0431 | 0.0583 | 0.115 | 0.0608 | 0.0875 | 0.0631 | 0.0794 | 0.0541 | 0.042 | – | 0.0793 | 0.0698 | 0.0732 | 0.117 | 0.0496 | 0.0574 | – | 0.0716 |
| I43P | 0.0516 | 0.0441 | 0.0533 | 0.0368 | 0.0141 | 0.0462 | 0.0438 | 0.0771 | – | 0.0557 | 0.0479 | 0.038 | 0.037 | – | 0.0516 | 0.0517 | 0.0512 | 0.0469 | 0.054 |
| D149N | 0.0688 | 0.0605 | 0.0548 | – | 0.0499 | 0.124 | 0.0543 | 0.0635 | – | 0.0656 | 0.0616 | 0.075 | 0.0751 | – | 0.12 | 0.0636 | 0.064 | 0.0445 | 0.0977 |
| I110Q | 0.0496 | 0.0696 | – | 0.0491 | – | 0.0559 | 0.0567 | 0.0618 | 0.0682 | 0.0585 | 0.0683 | 0.0567 | 0.0507 | 0.0589 | – | 0.051 | – | 0.0677 | – |
